# Measurements as given in PMC6212790.
# This is one part of the list. At the low end of the ranking the order means little.
# Target: T1, GST-Rok-C97-191 (UniProt O34857)
# T1 sequence: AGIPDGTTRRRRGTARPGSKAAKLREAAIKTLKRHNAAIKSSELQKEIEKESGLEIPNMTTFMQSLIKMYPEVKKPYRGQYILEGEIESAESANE
# Test: protein binding microarray;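 further: rank score from −0.5 (least bound) to 0.5 (best bound)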
# Details: Rok is a gene silencer of Bacillus subtilis; high values mean tight binding; most listed sequences are background and not binding sites; double strand, one strand shown
row,Sequence,binding signal [E-score]
1,CGTGTTCA,-0.172
2,AGGAACTG,-0.0105
3,AGGTTAAA,0.105
4,AGTCGGTG,-0.00548
5,TACCTGGA,-0.00728
6,AGAGAACT,0.0929
7,CTCCTATA,0.209
8,ATCTAGGG,-0.0226
9,GCGAGACA,-0.14
10,CTAACCCC,-0.289
11,ATGGGAGG,-0.213
12,ACAAGAGA,0.0565
13,AAGCATCT,-0.187
14,CCATTAAC,0.116
15,GTATTTGA,0.0326
16,ATGCGATC,-0.0839
17,AGTGAAAC,-0.0501
18,AGTTCTTG,-0.0583
19,CGTGGTCA,-0.0431
20,TCAAGCGA,-0.187
21,ACCCAGTC,-0.0583
22,TATATATA,0.454
23,TGTTGTAA,0.179
24,ACCGGCTA,-0.0516
25,CGAAGCTA,0.0414

row,Sequence,binding signal [E-score]
1,AATTAAGT,0.233
2,AGTCTCTA,0.0188
3,ACATTTTA,0.303
4,ATGGTAAA,0.23
5,GTCGCGGA,-0.131
6,ACAAGCCT,-0.0979
7,AGGCAGCC,-0.306
8,AAGAGAAG,0.051
9,CATCGAGC,0.0525
10,CCCCACCC,-0.296
11,ACCAACGG,-0.101
12,TAACGCTA,-0.0327
13,ACCAATTC,0.132
14,AACATCAC,0.0103
15,GAGAATTA,0.226
16,GAAATATC,0.258
17,CCTAGAGG,-0.0881
18,CCAATGGA,0.133
19,GCATTCGA,-0.00105
20,AGTTGCCC,-0.0628
21,ACACCTGG,-0.101
22,AATTATTC,0.163
23,TAGACCGA,0.124
24,CAGCCGGA,-0.17
25,CCATCCAG,-0.131

row,Sequence,binding signal [E-score]
1,CAAGCATA,0.0578
2,TATGAAAA,-0.0337
3,CGCACCCC,-0.388
4,CACCATAG,0.0443
5,GAAACACA,0.0119
6,CATTAATG,0.271
7,ACATCGCC,-0.163
8,GATACAGA,-0.145
9,AGGCGCCC,-0.279
10,AACAGCGC,-0.166
11,CAAAGGCC,-0.258
12,CAAGCCTA,0.00707
13,AAGCAATA,0.114
14,AAGTACGT,0.209
15,ACGTCTAC,-0.02
16,CTGCGGCC,-0.323
17,AGGCAGTA,0.186
18,CCGACGGA,-0.091
19,GAATTTCA,0.087
20,CCGATCAA,0.0254
21,GACTAGAA,0.206
22,GGATAGAA,0.195
23,TTCAACAA,0.0826
24,TACGTGGA,-0.126
25,CGCCCCGA,-0.148

row,Sequence,binding signal [E-score]
1,GGTTTGCA,0.0352
2,ACCTACCC,0.0333
3,AAGACAAG,-0.0755
4,AGCAATTA,0.303
5,ACAATTGA,0.128
6,AGTCTCTG,-0.02
7,TAGGCCCA,-0.161
8,GGTAAGTA,0.205
9,AAAGGTTC,-0.0274
10,ACCTCGCT,-0.148
11,CAGTAGAC,-0.106
12,GCACCTAA,-0.129
13,ACACAGTC,-0.101
14,AACTTAGG,0.11
15,TATCCTAA,0.16
16,CCAAATCG,0.0114
17,CCCCTCCC,-0.298
18,ATGGGTTA,0.141
19,CCGGACGC,-0.24
20,CAGCGCCC,-0.333
21,GGCGTTAA,-0.109
22,AGCCAAGA,-0.285
23,AGCCCCCT,-0.435
24,CCCAGTGC,-0.307
25,AGTGTTAC,0.271

row,Sequence,binding signal [E-score]
1,GTCTCCCA,-0.173
2,GAGATCAC,-0.00408
3,CGGCGTGC,-0.187
4,CATAGCAG,-0.00645
5,CCGGCAGG,-0.169
6,CCCCGACA,-0.248
7,AAGCAGAC,-0.102
8,CGTTTATC,0.231
9,CTTTGGTA,-0.026
10,ATCGAAAT,0.291
11,AACTAAGT,0.23
12,GTTCGAGA,0.0819
13,AAACCACT,-0.0924
14,CGCTCAAA,-0.126
15,ACATGATG,0.0243
16,AATGAAGG,-0.169
17,CAGTTTAG,0.0289
18,ATCAACTA,0.213
19,GCACAACC,-0.119
20,AACGAGCC,-0.166
21,CCTAGAAC,0.115
22,CGGGGGAA,-0.336
23,GAGGTAGC,-0.122
24,GTTACGGA,-0.07
25,GCACGACA,-0.0862

row,Sequence,binding signal [E-score]
1,ATAGTGTC,0.172
2,AGAGTTGG,0.0159
3,CTGCACCA,-0.0332
4,CGAACGTC,-0.213
5,ATTAATGG,0.0311
6,ACCGGAGA,0.0332
7,CCGGTACA,0.0693
8,GTAACCAC,0.124
9,AGTGGCGA,-0.112
10,CCTTAGTC,-0.0143
11,CGCCGGAC,-0.232
12,ACCGAACG,-0.0786
13,AGCTGAAT,-0.0968
14,ACCCCTTA,-0.121
15,GTCATGGA,-0.0152
16,GAAAACTC,-0.0271
17,CGACGGGA,-0.178
18,AATTCTGC,0.122
19,CGAACGCG,0.0126
20,TGCAGGAA,-0.0299
21,CTCATCTA,-0.0161
22,AAGGTTGC,-0.232
23,ACGTTCAC,0.0772
24,CCGTTCCC,-0.197
25,CAGAGACC,-0.168

row,Sequence,binding signal [E-score]
1,CACCCCAA,0.0157
2,GGTTCAAC,-0.0853
3,TGGTACAA,0.232
4,CTAGCTTA,0.235
5,AGCATCCA,-0.145
6,AGCGTACT,0.0377
7,CTTAGACC,-0.194
8,AAAGAGCA,-0.205
9,CTGTGTAA,0.0581
10,CACGCTCA,-0.0978
11,CCGGCTAA,-0.0153
12,TGGGCGAA,-0.167
13,ACAAATGG,0.221
14,CCTCGCCC,-0.265
15,AATATCTG,0.2
16,GCAGCTGA,-0.278
17,CGCCTCAA,-0.247
18,AGATACGC,0.226
19,AACTCTAG,0.0856
20,AGGTGCAA,0.148
21,CCAGAGTA,-0.111
22,ACTTGGAG,-0.118
23,ATGAGGTG,-0.0787
24,CGATTACC,-0.0915
25,ACACACAT,-0.0778

row,Sequence,binding signal [E-score]
1,CACTGGAG,-0.288
2,ACGTTAGC,0.00272
3,CTCAGGTC,-0.112
4,CTACCCTC,-0.104
5,GGTGGCAC,-0.248
6,GGCAAAAC,0.125
7,GGAAAGGA,-0.0275
8,AAGTTGCC,0.0483
9,GCTGTTGA,-0.124
10,GCGACCGC,-0.241
11,AATAAACC,-0.0483
12,AAAGTTAT,0.262
13,CCCGTCAC,-0.282
14,AGGCTGAC,-0.0608
15,CACCGGTA,0.0827
16,ACGTCGTG,-0.0834
17,GCCCTTAC,-0.0541
18,AGATATCA,0.0773
19,TACTATCA,0.324
20,CCCCGGCG,-0.351
21,AGTCACAT,0.09
22,GACCTTCC,-0.268
23,AAGAACCC,-0.145
24,ACTCGGGC,-0.286
25,CACTAGCG,-0.0571

row,Sequence,binding signal [E-score]
1,AACTGGGC,-0.254
2,CATCCATG,0.0926
3,GAACAAAC,0.00279
4,GTCTTTGA,-0.222
5,CACTCTTC,-0.178
6,GTAATCAC,-0.089
7,CATGATGC,0.0223
8,ATAAGGAT,0.025
9,CGAGAAAG,-0.0869
10,CCTTCATC,-0.0378
11,ACGGAACT,0.144
12,CGCTATCC,0.0357
13,CAACAGAA,-0.135
14,ACCCGACT,0.0113
15,TGCAATAA,-0.0544
16,GTGGGCAA,-0.141
17,CTACATAA,0.203
18,AAGTAGCT,0.289
19,CATGCACC,-0.0412
20,TATTCGCA,0.03
21,CACGCCCC,-0.364
22,CGGACACG,-0.113
23,CAGAGTGG,-0.132
24,GTAACAGA,0.0718
25,CACAATAG,0.191

row,Sequence,binding signal [E-score]
1,ACATCTCA,0.111
2,AGCCCCGC,-0.286
3,TACTAAAA,0.421
4,AGTGACAT,-0.00825
5,CCATCGAA,-0.174
6,AGCTGTGC,-0.0774
7,CTGGTGAC,-0.118
8,CATCTTCA,0.107
9,AGCGAGAA,0.113
10,AAGAGTGT,-0.0454
11,CAGCGCAC,-0.0441
12,GATTTTCA,-0.0515
13,ATTGAGTA,0.068
14,ATTCCTAG,0.154
15,CAGGAAAG,-0.169
16,ACAGCTCA,-0.103
17,ACTCTTGC,0.0107
18,ACTTTAAG,0.0353
19,CTGGCAGA,0.0748
20,CCAGAAGG,-0.248
21,ACTCAAGT,0.0909
22,GTCCGTCA,-0.0531
23,ACCGATTG,-0.0512
24,CGGCCGTC,-0.214
25,AGCGGAAG,0.0494

row,Sequence,binding signal [E-score]
1,AATACAGA,0.0883
2,GAGTTATA,0.213
3,AGCAACAG,0.0327
4,AGAGCACG,-0.222
5,ATATCTAC,0.377
6,TCTAGAGA,0.171
7,AGACGGTG,-0.00614
8,ACAACAAC,0.138
9,GAAAGGCA,-0.103
10,CCTCTAAG,-0.175
11,TAAGAGTA,0.147
12,ACGTCACA,-0.15
13,ACTGTATA,0.322
14,AGAGTAAG,0.2
15,CGACAACA,-0.00368
16,AACATACA,0.343
17,CCGCAACC,-0.197
18,CGGTCATA,0.225
19,AGCCTAAG,-0.058
20,CGACCGTA,-0.0301
21,CTCGATCA,-0.00141
22,AAACGGGC,-0.0672
23,AGATATTG,0.186
24,AGTGAGAA,-0.0314
25,TGCGACCA,-0.082

row,Sequence,binding signal [E-score]
1,AAAATAGG,0.223
2,ACAGCGCG,-0.0529
3,AAAAACGC,0.0504
4,AAATCGAC,-0.115
5,GGGGGTGA,-0.223
6,AGTGGAGC,-0.0527
7,CCAAACAA,-0.0294
8,TTCTAAAA,-0.00613
9,ACTCCGCG,0.0265
10,CTGGCGAC,-0.196
11,CGATCGCA,-0.00386
12,ATTTCTTG,-0.00368
13,ATATCCAC,0.182
14,GGGTAATA,0.272
15,AGCTACTC,0.0569
16,AACAGCAC,-0.0984
17,AATCTGCA,-0.076
18,AGATCGCA,-0.155
19,ACTCCCGG,0.00854
20,ACGCGAGA,-0.0328
21,GTCCATTA,0.0137
22,CAGAGACG,-0.197
23,AAGGTCAC,-0.121
24,TGCAAGCA,-0.0889
25,ATTGCAAG,0.0246

row,Sequence,binding signal [E-score]
1,TCTTACCA,0.251
2,GGGTAAAC,-0.0929
3,GTCTAAAA,-0.0402
4,ACATAGGG,0.0208
5,GAAGACGA,-0.192
6,CACTGCAG,-0.00561
7,AATTACCC,0.185
8,TGTAATAA,0.311
9,GCCATACA,0.153
10,CCATGCAA,-0.0636
11,CAGAAGGG,-0.395
12,AAGGGACA,0.03
13,AAAATGCA,0.153
14,AGGGACTA,-0.297
15,TACACAAA,0.25
16,AAAAATTG,0.123
17,CCTCGTTC,-0.288
18,CGAGTCCA,-0.379
19,ACGATCTG,-0.154
20,GCGAGTCA,-0.0273
21,GAATCCGC,-0.113
22,GAGAATGC,0.0209
23,ATTGTTTG,0.178
24,AGGCTCGA,-0.122
25,GTCCGCCA,-0.292

row,Sequence,binding signal [E-score]
1,CCGTCAAG,-0.207
2,ATTGTCTG,-0.217
3,TAGGGCAA,0.0571
4,CCCAACCA,0.00843
5,AGCTTCAG,-0.161
6,GGGCACTA,-0.131
7,ATCGGGCG,-0.151
8,GATAGTAC,0.184
9,CCCGCAGC,-0.189
10,CACTGGGC,-0.426
11,AAGTAGGT,0.248
12,ACCATTGG,-0.182
13,AGCCCACC,-0.271
14,ACCGAGCC,-0.249
15,AGAACAAG,0.161
16,AAAGCCAA,-0.19
17,AAACTGGC,-0.0457
18,ATGACAAA,0.117
19,AAAGTCGC,-0.0453
